Assay results: the BET-seq Pho4 binding data (Le et al. 2018)
The other results are listed elsewhere or left out. Values were computed here from the reads of four pooled replicates and scatter widely.

What follows are sequences tested against T1, Pho4 (S. cerevisiae) (UniProt P07270) (assay: relative binding free energy (BET-seq); higher = weaker binding). Conditions: reference: library average.
T1 sequence: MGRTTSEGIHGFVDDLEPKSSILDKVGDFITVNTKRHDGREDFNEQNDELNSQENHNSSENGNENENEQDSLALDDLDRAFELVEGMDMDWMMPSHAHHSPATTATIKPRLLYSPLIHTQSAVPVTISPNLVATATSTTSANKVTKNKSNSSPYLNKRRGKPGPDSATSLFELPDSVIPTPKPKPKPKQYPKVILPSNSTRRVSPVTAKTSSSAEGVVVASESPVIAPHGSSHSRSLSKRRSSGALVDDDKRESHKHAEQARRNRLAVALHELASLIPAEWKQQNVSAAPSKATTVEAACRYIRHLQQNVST

Row | Sequence | relative binding free energy
1 | TCCGTCACGTGTATGG | 0.11 kcal/mol
2 | TAAATCACGTGTAGTG | 0.04 kcal/mol
3 | TGGTACACGTGACGTG | 0.09 kcal/mol
4 | AAGGACACGTGTGGGT | 0.17 kcal/mol
5 | TAGCACACGTGGATGT | 0.16 kcal/mol
6 | TGTCTCACGTGTGTCT | 0.39 kcal/mol
7 | GAGTTCACGTGTATGG | 0.27 kcal/mol
8 | ACGTGCACGTGTTAGG | -0.19 kcal/mol
9 | CGGCACACGTGGGTGT | -0.05 kcal/mol
10 | TCGTACACGTGGTAAG | 0.12 kcal/mol
11 | GAGTGCACGTGTTGCG | -0.04 kcal/mol
12 | TAAGTCACGTGACAGG | 0.31 kcal/mol
13 | GGTATCACGTGATTGC | 0.24 kcal/mol
14 | TGGCGCACGTGGTTAG | -0.14 kcal/mol
15 | AGAATCACGTGGTCGG | 0.2 kcal/mol
16 | AGTTGCACGTGGTCAT | -0.12 kcal/mol
17 | CTCGGCACGTGTTTTT | -0.1 kcal/mol
18 | TGTAGCACGTGTTCAA | -0.09 kcal/mol
19 | AGGGCCACGTGGAGAG | -0.09 kcal/mol
20 | TATGTCACGTGTAGTC | 0.05 kcal/mol
21 | GGGTGCACGTGTGTTT | 0.08 kcal/mol
22 | GTAGTCACGTGGTTAT | 0.17 kcal/mol
23 | GGCTTCACGTGGGAGT | 0.26 kcal/mol

Row | Sequence | relative binding free energy
24 | GGCGGCACGTGAAGGT | 0.22 kcal/mol
25 | TGGTCCACGTGGGTCG | -0.03 kcal/mol
26 | GGAGGCACGTGCTGGG | -0.13 kcal/mol
27 | TTTGGCACGTGATTAA | 0.02 kcal/mol
28 | GTATACACGTGAGGCT | 0.28 kcal/mol
29 | AGACACACGTGTAGTG | 0.18 kcal/mol
30 | GGTAACACGTGTTGGA | 0.2 kcal/mol
31 | GTGTGCACGTGTGTGC | -0.02 kcal/mol
32 | CGGCGCACGTGTGCGG | -0.11 kcal/mol
33 | GATGGCACGTGTAATT | 0.09 kcal/mol
34 | ATGGTCACGTGTTTTA | 0.13 kcal/mol
35 | GGTACCACGTGTGGGC | 0.14 kcal/mol
36 | GTGTTCACGTGGGTTG | 0.11 kcal/mol
37 | CGGGGCACGTGGAGCA | -0.16 kcal/mol
38 | AGGGTCACGTGGTTCG | 0.16 kcal/mol
39 | CGTTGCACGTGTGATG | 0.03 kcal/mol
40 | GTTTTCACGTGTTGCG | 0.33 kcal/mol
41 | GGGTTCACGTGGAGCG | 0.3 kcal/mol
42 | GATTTCACGTGAAGTT | 0.46 kcal/mol
43 | GGTCACACGTGTGGTT | 0.16 kcal/mol
44 | TCATACACGTGAGTGG | 0.21 kcal/mol
45 | TGTTACACGTGAATAT | 0.23 kcal/mol
46 | TGAAACACGTGTTGTG | -0.06 kcal/mol

Row | Sequence | relative binding free energy
47 | TGACGCACGTGTGCTG | -0.05 kcal/mol
48 | TTTAGCACGTGTGGCT | -0.06 kcal/mol
49 | GTGCACACGTGGTATG | -0.11 kcal/mol
50 | ATTGTCACGTGAAATG | 0.3 kcal/mol
51 | AAGTTCACGTGGGTAC | 0.21 kcal/mol
52 | TGTGGCACGTGTCATA | -0.07 kcal/mol
53 | ATATTCACGTGATGTT | 0.27 kcal/mol
54 | TTGTCCACGTGTGAAT | 0.23 kcal/mol
55 | AATTACACGTGAGGGG | 0.21 kcal/mol
56 | TTTGACACGTGCGGGG | -0.02 kcal/mol
57 | TAGAGCACGTGGGGGG | -0.19 kcal/mol
58 | GAGGGCACGTGAGTCT | 0.19 kcal/mol
59 | CGTTCCACGTGGTTTA | 0.04 kcal/mol
60 | TATAACACGTGTCTGG | -0.1 kcal/mol
61 | TTCAACACGTGGTGTT | -0.16 kcal/mol
62 | TGCTTCACGTGGTAAG | 0.08 kcal/mol
63 | TTATTCACGTGTTGCA | 0.03 kcal/mol
64 | GTCGGCACGTGGAGTA | 0 kcal/mol
65 | GGAGGCACGTGGGTGT | -0.22 kcal/mol
66 | GGGTGCACGTGCTTGC | 0.03 kcal/mol
67 | GATTCCACGTGGGTGC | 0.21 kcal/mol
68 | TGGATCACGTGTTCGA | 0.2 kcal/mol
69 | CGGGACACGTGGTGGA | -0.04 kcal/mol

Row | Sequence | relative binding free energy
70 | GAGGTCACGTGTTTAC | 0.32 kcal/mol
71 | CAGGCCACGTGGGTAG | -0.14 kcal/mol
72 | TGATTCACGTGCTGTG | 0.28 kcal/mol
73 | CATATCACGTGATTGT | 0.32 kcal/mol
74 | GGAGGCACGTGCTGGT | -0.19 kcal/mol
75 | GTGCTCACGTGTTTTT | 0.32 kcal/mol
76 | GTTCTCACGTGGTGAA | 0.33 kcal/mol
77 | TTATGCACGTGCGGCG | -0.09 kcal/mol
78 | ATGATCACGTGGTGCT | -0.09 kcal/mol
79 | TTATGCACGTGACTTT | 0.2 kcal/mol
80 | TGAGTCACGTGAAAGT | 0.19 kcal/mol
81 | TTGGACACGTGAGTTC | 0.28 kcal/mol
82 | CATTGCACGTGGATGT | 0 kcal/mol
83 | TTGCCCACGTGTGTGT | -0.12 kcal/mol
84 | TAGGACACGTGACTGT | 0.17 kcal/mol
85 | ATTTACACGTGGATCG | 0.15 kcal/mol
86 | CGGGTCACGTGTATAA | 0.25 kcal/mol
87 | GTCTTCACGTGTATTA | 0.33 kcal/mol
88 | ATTGGCACGTGCGGTC | -0.03 kcal/mol
89 | AGGGGCACGTGGTGGG | -0.16 kcal/mol
90 | GCCTGCACGTGGGAGG | -0.07 kcal/mol
91 | GGGGACACGTGAGGCT | 0.16 kcal/mol
92 | AAGGACACGTGCTTGG | 0.06 kcal/mol

Row | Sequence | relative binding free energy
93 | CGGTGCACGTGTGGTC | 0.06 kcal/mol
94 | GTGTTCACGTGCTGAA | 0.18 kcal/mol
95 | TGCTTCACGTGGGACG | 0.22 kcal/mol
96 | ATGTTCACGTGATGTT | 0.35 kcal/mol
97 | GGGGCCACGTGTTATT | 0.05 kcal/mol
98 | GGATACACGTGTGTAT | 0.09 kcal/mol
99 | ATGTCCACGTGGTTTT | 0.14 kcal/mol
100 | TCGGTCACGTGTTATG | 0.07 kcal/mol
101 | TCATTCACGTGAGCGG | 0.54 kcal/mol
102 | GAGGGCACGTGGTTCA | -0.08 kcal/mol
103 | TTCATCACGTGATATG | 0.17 kcal/mol
104 | GTGTGCACGTGGTATT | -0.05 kcal/mol
105 | AAGGTCACGTGTAATT | 0.22 kcal/mol
106 | AGGAGCACGTGGGTCT | -0.21 kcal/mol
107 | TGAGGCACGTGTAGAG | 0 kcal/mol
108 | TGAATCACGTGGGTAA | 0.11 kcal/mol
109 | ATGTGCACGTGCTTTC | 0.07 kcal/mol
110 | TGCTCCACGTGGTTTT | 0.09 kcal/mol
111 | AGTGGCACGTGGGTTG | -0.29 kcal/mol
112 | TAGATCACGTGTTCTG | 0.15 kcal/mol
113 | TGTCACACGTGATAGG | 0.02 kcal/mol
114 | TATTTCACGTGATAAT | 0.26 kcal/mol
115 | GTTGACACGTGACGGG | 0.16 kcal/mol
